Test results reported in PubChem BioAssay AID686979 (National Center for Advancing Translational Sciences (NCATS), 2013).
The campaign covered roughly 420,000 compounds. About 50,000 (12%) were called active. The inconclusive results got no clear call from the source; some entries with a clear call stand among them for comparison. The call rests on the fitted dose curve; in most records, active means well fitted inhibition curve with a large enough effect; inconclusive means small, poorly fitted or top-dose-only effect; inactive means flat fitted curve, though single readings scatter. Potencies of inconclusive entries are left out as doubtful fits.

Experiment: qHTS for Inhibitors of human tyrosyl-DNA phosphodiesterase 1 (TDP1): qHTS in cells in presence of CPT; further: nearly all actives have a fitted effect of over 55% in size
Conditions: chicken DT40 Tdp1-/-;hTDP1 cells + 20 nM CPT, ATP luminescence, 48 h; activity change, negative = growth inhibition: at 46.2 µM (top of the series) unless noted
In short: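 Cell growth measured by CellTiter-Glo luminescence after a minimum 48 h, 37 C compound exposure with 20 nM CPT in Tdp1-knockout DT40 cells stably expressing hTDP1, seeded 400/well; qHTS titration format.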
On the % scale 0 is the no-effect control and ±100 the full control effect; potency means the concentration at half of the fitted maximal effect; tags describe the fitted curve by direction and shape.

| SMILES | Potency | activity change, negative = growth inhibition |
| --- | --- | --- |
| COc1cccc(C(=O)Nc2ccc(N3CCN(Cc4ccccc4)CC3)cc2)c1 | inconclusive [inhibitor, single point] | – |
| CC(C)(C)c1cc(CP(=O)(c2ccccc2)c2ccccc2)cc(C(C)(C)C)c1O | inconclusive [inhibitor, single point] | – |
| Cc1ncc2c(c1CNC(=O)c1cncs1)CCN(C(=O)c1ccc(C(F)(F)F)cc1)C2 | – | inactive: -15.1% [at 9.04 µM] |
| Cc1ccc(Nc2nc(N)nc(N)c2N=O)cc1C | inconclusive [inhibitor, partial curve] | – |
| O=c1c2ccccc2nnn1CSc1nc2ccccc2c(=O)n1CCCO | – | inactive: -24.6% |
| COc1ccc(NC(=O)c2ccc3nc(CCc4ccccc4)oc3c2)c(OC)c1 | – | inactive: -26.7% |
| CCc1nc(SCC(=O)Nc2cccc(C(F)(F)F)c2)c2c(=O)n(C)c(=O)n(C)c2n1 | inconclusive [inhibitor, single point] | – |
| CCCCc1nc2cc(C(=O)N3CCCCC3CCNC(C)=O)ccc2o1 (stereo unspecified) | inconclusive [inhibitor, single point] | – |
| Cc1cccc(Oc2c(C=O)c3ccccc3n2C)c1 | inconclusive [inhibitor, single point] | – |
| COc1ccccc1C1c2[nH]c3ccccc3c2CCN1Cc1cnc(C)s1 (stereo unspecified) | inconclusive [inhibitor, single point] | – |
| COc1ccc(C2C(C#N)=C(N)Oc3cc(N)ccc32)cc1 (stereo unspecified) | – | inactive: 2.09% |
| CC(=O)Nc1ccc(NC(=O)c2ccc(-n3c(C)ccc3C)cc2)cc1 | inconclusive [inhibitor, partial curve] | – |
| CCOC(=O)N1CCN(C(=O)Cn2ccc3c(OC)cccc3c2=O)CC1 | – | inactive: -29.4% |
| CCN(CC)S(=O)(=O)c1ccc(OC)c(NC(=O)c2cccc(C)c2[N+](=O)[O-])c1 | inconclusive [inhibitor, partial curve] | – |
| O=C(NCCc1ccccc1)c1ccc(Cn2c(SCc3cccc(F)c3)nc3cccnc32)cc1 | active: 7.31 µM | – |
| COc1ccc(CCNC(=O)CCCCn2c(=O)c3ccccc3n(Cc3ccccc3C)c2=O)cc1OC | active: 20.6 µM | – |
| COc1cc(C(CC(=O)Nc2ccc(F)cc2F)N2Cc3ccccc3C2=O)cc(OC)c1OC (stereo unspecified) | inconclusive [inhibitor, partial curve] | – |
| CCCN1CCN(c2ncnc3c2nnn3Cc2ccccc2)CC1 | active: 16.4 µM | – |
| CC(C)C(c1nnnn1Cc1ccco1)N1CCN(c2nc3ccccc3s2)CC1 (stereo unspecified) | inconclusive [inhibitor, single point] | – |
| O=c1nc(-c2ccccc2)c(-c2ccccc2)n[nH]1 | – | inactive: 2.92% |
| CCOc1ccc(NC(=O)c2ccc3c(=O)n4nc(Nc5ccccc5C)sc4nc3c2)cc1 | inconclusive [inhibitor, full curve] | – |
| COc1cc(Cl)c(CNC[C@H]2O[C@@H](n3cnc4c(N)ncnc43)[C@H](O)[C@@H]2O)c(Cl)c1O | – | inactive: -2.82% |
| CCS(=O)(=O)c1ncc(N(Cc2ccccc2)Cc2ccco2)c(C(=O)Nc2ccc(C)c(C)c2)n1 | active: 20.6 µM | – |
| COC(=O)C1=C(C)N(c2ccc(C(=O)OC)cc2)C(=O)C1 | inconclusive [inhibitor, single point] | – |

| SMILES | Potency | activity change, negative = growth inhibition |
| --- | --- | --- |
| CCN(CC(=O)N1CCN(Cc2ccccc2)CC1)S(=O)(=O)c1ccccc1 | – | inactive: -22.1% |
| CC(C)CN1CCC(C(=O)NC(c2ccc(F)cc2)c2ccc3ccccc3n2)CC1 (stereo unspecified) | inconclusive [inhibitor, single point] | – |
| O=C(Cn1c(=O)oc2cc(Cl)ccc21)Nc1cccc(C(F)(F)F)c1 | active: 18.4 µM | – |
| Cc1nc2ncnn2c(C)c1CCC(=O)N1CCN(c2ccccc2)CC1 | – | inactive: 15.5% |
| CCCCn1c(-c2cccc(F)c2)nc2c1c(=O)[nH]c(=O)n2CC(C)C | – | inactive: -27.8% |
| CSc1ncc(CN2CCN(C3CCCCC3)C(CCO)C2)cn1 (stereo unspecified) | inconclusive [inhibitor, single point] | – |
| COc1cccc(NC(=O)Cn2nnc(-c3nc(-c4ccccc4)no3)c2N)c1 | inconclusive [inhibitor, partial curve] | – |
| Cc1[nH]c2ccc(F)cc2c1CCN(Cc1cccnc1)C(=S)Nc1cccc(F)c1 | inconclusive [inhibitor, single point] | – |
| CCc1ccccc1NC(=O)Cn1c(=O)n(-c2ccc(C)cc2)c(=O)c2c1c1cc(C)ccc1n2C | – | inactive: -4.13% |
| COc1ccc(OC)c(NC(=O)c2cc3cc(C)ccc3n2C)c1 | inconclusive [inhibitor, single point] | – |
| CCCNC(=O)C1(C)CCN(C(=O)c2ccc(OC(F)F)cc2)C1 (stereo unspecified) | – | inactive: -15.9% |
| CC(OC(=O)c1ccc(F)cc1)C(=O)Nc1nc(-c2cccc([N+](=O)[O-])c2)cs1 (stereo unspecified) | inconclusive [inhibitor, single point] | – |
| CCCCCn1cc2c(c1-c1ccc(Br)cc1)c(=O)n(C)c(=O)n2C | active: 18.4 µM | – |
| COC(=O)c1ccc(CNC(=O)C2CCC(=O)N(CCc3ccccc3)C2)cc1 (stereo unspecified) | – | inactive: -14.1% |
| COc1cccc(C(=O)N2CCN(C3CCC(c4ccccc4)CC3)CC2)c1OC (stereo unspecified) | inconclusive [inhibitor, single point] | – |
| CC(C)CNC(=S)Nc1ccc(F)cc1 | – | inconclusive: -31.5% [inhibitor] |
| Cc1cc(Nc2ccc(C(C)C)cc2)n2ncnc2n1 | inconclusive [inhibitor, single point] | – |
| CN(CC(=O)Nc1ccc(N2CCOCC2)cc1)C(=O)CSc1ccc(Br)cc1 | inconclusive [inhibitor, partial curve] | – |
| O=C(Nc1ccc(OCC(F)(F)C(F)F)cc1)c1ccncc1 | inconclusive [inhibitor, partial curve, poor fit] | – |
| CC(C)NS(=O)(=O)c1ccc(NC(=O)C(C)OC(=O)C2CCC2)cc1 (stereo unspecified) | – | inactive: -2.2% |
| COCCNc1nnc(SCC(=O)c2c[nH]c3ccccc23)s1 | – | inactive: -23.8% |
| Cc1ccc(S(=O)(=O)N(CC(=O)N2CCCCC2)c2cccc(C)c2)cc1 | inconclusive [inhibitor, single point] | – |
| COc1ccccc1CNc1cc(-c2ccccc2)ccc1OC | – | inactive: -1.78% |
| Cn1nc(-c2ccc3c(c2)OCCO3)c2ccccc2c1=O | inconclusive [inhibitor, single point] | – |

| SMILES | Potency | activity change, negative = growth inhibition |
| --- | --- | --- |
| Cc1cccc(CS(=O)(=O)Cc2ccc(C(=O)NC3CCCCCC3)o2)c1 | inconclusive [inhibitor, single point] | – |
| CC(C)c1nc2scc(-c3ccc(Cl)cc3)c2c(=O)n1N | active: 25.9 µM | – |
| S=C(c1nc2ccccc2[nH]1)N1CCOCC1 | inconclusive [inhibitor, single point] | – |
| Cc1ccc(CCNC(=O)C2CCN(S(=O)(=O)N3CCCC3)CC2)cc1 | inconclusive [inhibitor, single point] | – |
| O=C(CCNS(=O)(=O)c1ccccc1)OCc1nc2ccsc2c(=O)[nH]1 | – | inactive: 5.83% |
| COc1ccc(CCNC(=O)c2cnccn2)cc1 | – | inconclusive: -34.7% [inhibitor] |
| Cc1nc(Cc2nnc(SCC(=O)Nc3c(C)cccc3C)o2)cs1 | – | inactive: -3.52% |
| CCN(Cc1ccccc1)C(=O)Cn1cc(S(=O)(=O)Cc2cccc(Cl)c2)c2ccccc21 | inconclusive [inhibitor, single point] | – |
| Cc1ccc(O)c(NC(=O)c2ccc(Br)c(S(=O)(=O)N3CCCCC3)c2)c1 | active: 9.2 µM | – |
| COc1ccc(C(=O)CC(=O)C(=O)Nc2cccc(F)c2)cc1 | inconclusive [inhibitor, single point] | – |
| CCC(c1nnnn1C1CCCCC1)N(Cc1ccco1)Cc1cc2ccc(OC)cc2[nH]c1=O (stereo unspecified) | inconclusive [inhibitor, single point] | – |
| Cc1ccc(Cn2cc(CN(C)C3CN(Cc4cn(Cc5ccc(C)cc5)nn4)S(=O)(=O)C3)nn2)cc1 (stereo unspecified) | inconclusive [inhibitor, single point] | – |
| COc1ccc2cc(OCC(=O)NNC(=O)Nc3ccc(C(C)=O)cc3)ccc2c1 | inconclusive [inhibitor, single point] | – |
| Cc1ccc(OCC(=O)c2cc(C)n(-c3ccccc3)c2C)c([N+](=O)[O-])n1 | inconclusive [inhibitor, single point] | – |
| Cc1cc2c(cc1C)NC(CC(=O)Nc1ccccc1)C(=O)N2 (stereo unspecified) | active: 16.4 µM | – |
| COc1cc(Cl)c(S(=O)(=O)N2CC(C)OC(C)C2)cc1Cl (stereo unspecified) | inconclusive [inhibitor, partial curve] | – |
| CC(=O)c1sc2c(c1OC(=O)c1ccc(Cl)cc1)c(=O)n(-c1ccccc1)c(=S)n2-c1ccccc1 | inconclusive [inhibitor, single point] | – |
| Cc1ccc(O)c(C(=O)/C=C/c2ccc3c(c2)OCCO3)c1 | active: 16.4 µM | – |
| Cc1cc(OC(C)C(=O)N(Cc2cccs2)C2CCS(=O)(=O)C2)ccc1Cl (stereo unspecified) | inconclusive [inhibitor, single point] | – |
| COC(=O)c1scc(C)c1NC(=O)/C=C/C(=O)O | – | inactive: 12.2% |
| COc1cccc(-n2cnc(=O)c3cccnc32)c1 | – | inactive: -8.62% |
| CCc1ccc(NC(=O)C(=O)NCC(c2cccnc2)N2CCN(Cc3ccccc3)CC2)cc1 (stereo unspecified) | active: 11.6 µM | – |
| O=C(CCCn1c(=O)c2cccn2c2ccc(F)cc21)NCc1ccc(Cl)cc1 | inconclusive [inhibitor, single point] | – |
